This note sets out measurements from the supplement of paper PMC4604168 (melanoma cell lines).

The list shows a part of the results. Repeats are few or missing, and single values can be far off.
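Note: cells treated in 1,536-well plates, then fixed and DAPI-stained, with nuclei counted from automated high-throughput microscope images.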

This test has as its system WM3526. Kind of test: cell count relative to DMSO control; melanoma cells; higher = more viable cells. As to conditions: library dose: standard library concentration; 72 h.
With `COc1cc([C@@H]2c3cc4c(cc3[C@@H](O[C@@H]3O[C@@H]5CO[C@@H](C)O[C@H]5[C@H](O)[C@H]3O)[C@H]3COC(=O)[C@H]23)OCO4)cc(OC)c1O` [etoposide] + NC(=O)Nc1cc(-c2cccc(F)c2)sc1C(=O)N[C@H]1CCCNC1 [AZD7762] (first compound 0.1 µM, partner dose 0.1 µM), the cell count was determined as 47%.

As for `Cn1cnc2c(F)c(Nc3ccc(Br)cc3Cl)c(C(=O)NOCCO)cc21` [selumetinib] + CN(C)S(=O)(=O)c1ccc2c(c1)/C(=C/c1cc3c([nH]1)CCCC3)C(=O)N2 [SU6656] (first compound 0.075 µM, partner dose 2 µM), the cell count is 44.9%.

As to `C[C@]1(O)C[C@@H](c2nc(-c3ccc4ccc(-c5ccccc5)nc4c3)c3c(N)nccn32)C1` + CO[C@@H]1[C@H](N(C)C(=O)c2ccccc2)C[C@H]2O[C@]1(C)n1c3ccccc3c3c4c(c5c6ccccc6n2c5c31)C(=O)NC4 [Midostaurin] (first compound 2 µM, partner dose 0.4 µM), the cell count turned out to be 57.5%.

The molecule `Cn1cnc2c(F)c(Nc3ccc(Br)cc3Cl)c(C(=O)NOCCO)cc21` [selumetinib] + C[C@@H]1CCN(C(=O)CC#N)C[C@@H]1N(C)c1ncnc2[nH]ccc12 [CP690550] (first compound 0.075 µM, partner dose 5 µM) had a cell count of 82.5%.

Molecule `Cn1cnc2c(F)c(Nc3ccc(Br)cc3Cl)c(C(=O)NOCCO)cc21` [selumetinib] + OCCn1cc(-c2cnc3nnn(Cc4ccc5ncccc5c4)c3n2)cn1 [PF04217903] (first compound 0.075 µM, partner dose 5 µM) displayed a cell count of 55.7%.
